# Results taken from the supplement of paper PMC8728848.
# This is one part of the list.
# How the values were obtained:
# Assay in all cases: glycan array binding signal (z-score within array); higher = stronger binding
# Settings in all cases: glycan notation: IUPAC condensed, linker removed
# [1] = target: Gal(a1-3)Gal
# How it was run: (§1)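 The Consortium for Functional Glycomics database supplied 3228 glycan arrays, of which those lacking an available protein sequence were dropped. The binding signal, a within-array Z-score, was averaged across arrays of the same protein sequence and across linkers. Negative scores can be read as non-binding.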
# [2] = target: Gal(a1-3)Gal(b1-3)GlcNAc
# How it was run: as §1
# [3] = target: Gal(a1-3)Gal(b1-3)GlcNAc(b1-2)Man
# How it was run: as §1
# [4] = target: Gal(a1-3)Gal(b1-3)GlcNAc(b1-2)Man(a1-3)[Gal(a1-3)Gal(b1-3)GlcNAc(b1-2)Man(a1-6)]Man(b1-4)GlcNAc(b1-4)GlcNAc
# How it was run: as §1
# [5] = target: Gal(a1-3)Gal(b1-3)GlcNAc(b1-3)GalNAc
# How it was run: as §1
# [6] = target: Gal(a1-3)Gal(b1-3)GlcNAc(b1-6)GalNAc
# How it was run: as §1
# [7] = target: Gal(a1-3)Gal(b1-3)[Fuc(a1-4)]GlcNAc(b1-2)Man(a1-3)[Gal(a1-3)Gal(b1-3)[Fuc(a1-4)]GlcNAc(b1-2)Man(a1-6)]Man(b1-4)GlcNAc(b1-4)GlcNAc
# How it was run: as §1
# [8] = target: Gal(a1-3)Gal(b1-4)Glc
# How it was run: as §1
# [9] = target: Gal(a1-3)Gal(b1-4)GlcNAc
# How it was run: as §1
# [10] = target: Gal(a1-3)Gal(b1-4)GlcNAc(b1-2)Man
# How it was run: as §1
# [11] = target: Gal(a1-3)Gal(b1-4)GlcNAc(b1-2)Man(a1-3)[Gal(a1-3)Gal(b1-4)GlcNAc(b1-2)Man(a1-6)]Man(b1-4)GlcNAc(b1-4)GlcNAc
# How it was run: as §1
# [12] = target: Gal(a1-3)Gal(b1-4)GlcNAc(b1-3)GalNAc
# How it was run: as §1
# [13] = target: Gal(a1-3)Gal(b1-4)GlcNAc(b1-6)GalNAc
# How it was run: as §1
# [14] = target: Gal(a1-3)Gal(b1-4)[Fuc(a1-3)]GlcNAc
# How it was run: as §1
# [15] = target: Gal(a1-3)Gal(b1-4)[Fuc(a1-3)]GlcNAc(b1-2)Man(a1-3)[Gal(a1-3)Gal(b1-4)[Fuc(a1-3)]GlcNAc(b1-2)Man(a1-6)]Man(b1-4)GlcNAc(b1-4)GlcNAc
# How it was run: as §1
# [16] = target: Gal(a1-3)GalNAc
# How it was run: as §1
# [17] = target: Gal(a1-3)[Gal(a1-4)]Gal(b1-4)GlcNAc
# How it was run: as §1
# [18] = target: Gal(a1-4)Gal(b1-3)GlcNAc(b1-2)Man(a1-3)[Gal(a1-4)Gal(b1-3)GlcNAc(b1-2)Man(a1-6)]Man(b1-4)GlcNAc(b1-4)GlcNAc
# How it was run: as §1
# [19] = target: Gal(a1-4)Gal(b1-4)Glc
# How it was run: as §1
# [20] = target: Gal(a1-4)Gal(b1-4)GlcNAc
# How it was run: as §1
# [21] = target: Gal(a1-4)Gal(b1-4)GlcNAc(b1-2)Man(a1-3)[Gal(a1-4)Gal(b1-4)GlcNAc(b1-2)Man(a1-6)]Man(b1-4)GlcNAc(b1-4)GlcNAc
# How it was run: as §1
# [22] = target: Gal(a1-4)Gal(b1-4)GlcNAc(b1-3)Gal(b1-4)Glc
# How it was run: as §1
# [23] = target: Gal(a1-4)GlcNAc
# How it was run: as §1
# [24] = target: Gal(a1-6)Glc
# How it was run: as §1
# [25] = target: Gal(b1-2)Gal
# How it was run: as §1
# [26] = target: Gal(b1-3)Gal
# How it was run: as §1
# [27] = target: Gal(b1-3)Gal(b1-4)GlcNAc
# How it was run: as §1
# [28] = target: Gal(b1-3)GalNAc
# How it was run: as §1
# [29] = target: Gal(b1-3)GalNAc(a1-3)[Fuc(a1-2)]Gal(b1-4)Glc
# How it was run: as §1
# [30] = target: Gal(b1-3)GalNAc(a1-3)[Fuc(a1-2)]Gal(b1-4)GlcNAc
# How it was run: as §1
# [31] = target: Gal(b1-3)GalNAc(b1-3)Gal
# How it was run: as §1
# [32] = target: Gal(b1-3)GalNAc(b1-3)Gal(a1-4)Gal(b1-4)Glc
# How it was run: as §1
# [33] = target: Gal(b1-3)GalNAc(b1-4)Gal(b1-4)Glc
# How it was run: as §1
# [34] = target: Gal(b1-3)GalNAc(b1-4)[Neu5Ac(a2-3)]Gal(b1-4)Glc
# How it was run: as §1
# [35] = target: Gal(b1-3)GlcNAc
# How it was run: as §1
# [36] = target: Gal(b1-3)GlcNAc(a1-3)Gal(b1-4)GlcNAc
# How it was run: as §1
# [37] = target: Gal(b1-3)GlcNAc(a1-6)Gal(b1-4)GlcNAc
# How it was run: as §1
# [38] = target: Gal(b1-3)GlcNAc(b1-2)Man
# How it was run: as §1
binder,measurement,setting,value
"Gal-9-hFc (Mus musculus), O08573-2 (protein) MALFSAQSPYINPIIPFTGPIQGGLQEGLQVTLQGTTKSFAQRFVVNFQNSFNGNDIAFHFNPRFEEGGYVVCNTKQNGQWGPEERKMQMPFQKGMPFELCFLVQRSEFKVMVNKKFFVQYQHRVPYHLVDTIAVSGCLKLSFITFQTQNFRPAHQAPMAQTTIHMVHSTPGQMFSTPGIPPVVYPTPAYTIPFYTPIPNGLYPSKSIMISGNVLPDATRFHINLRCGGDIAFHLNPRFNENAVVRNTQINNSWGQEERSLLGRMPFSRGQSFSVWIICEGHCFKVAVNGQHMCEYYHRLKNLQDINTLEVAGDIQLTHVQT",glycan array binding signal (z-score),[1],0.14
same,glycan array binding signal (z-score),[2],1.06
same,glycan array binding signal (z-score),[3],-0.188
same,glycan array binding signal (z-score),[4],0.737
same,glycan array binding signal (z-score),[5],-0.357
same,glycan array binding signal (z-score),[6],-0.355
same,glycan array binding signal (z-score),[7],0.868
same,glycan array binding signal (z-score),[8],0.167
same,glycan array binding signal (z-score),[9],-0.217
same,glycan array binding signal (z-score),[10],-0.328
same,glycan array binding signal (z-score),[11],0.065
same,glycan array binding signal (z-score),[12],-0.421
same,glycan array binding signal (z-score),[13],-0.323
same,glycan array binding signal (z-score),[14],-0.64
same,glycan array binding signal (z-score),[15],-0.043
same,glycan array binding signal (z-score),[16],-0.439
same,glycan array binding signal (z-score),[17],-0.295
same,glycan array binding signal (z-score),[18],-0.289
same,glycan array binding signal (z-score),[19],0.77
same,glycan array binding signal (z-score),[20],-0.346
same,glycan array binding signal (z-score),[21],-0.328
same,glycan array binding signal (z-score),[22],-0.168
same,glycan array binding signal (z-score),[23],-0.452
same,glycan array binding signal (z-score),[24],0.19
same,glycan array binding signal (z-score),[25],0.277
same,glycan array binding signal (z-score),[26],0.036
same,glycan array binding signal (z-score),[27],-0.119
same,glycan array binding signal (z-score),[28],-0.126
same,glycan array binding signal (z-score),[29],0.123
same,glycan array binding signal (z-score),[30],-0.259
same,glycan array binding signal (z-score),[31],-0.517
same,glycan array binding signal (z-score),[32],-0.158
same,glycan array binding signal (z-score),[33],-0.105
same,glycan array binding signal (z-score),[34],-0.367
same,glycan array binding signal (z-score),[35],-0.214
same,glycan array binding signal (z-score),[36],-0.259
same,glycan array binding signal (z-score),[37],-0.477
same,glycan array binding signal (z-score),[38],-0.243
